Reference: PubChem BioAssay AID493005 (National Center for Advancing Translational Sciences (NCATS), 2010)
In all, about 340,000 compounds went through this assay and fewer than 10 were called active. This list was built around the results that the source calls inconclusive (neither active nor inactive); the mix of calls is not that of the screen. Calls follow the shape of the dose curve; as a rule, active = well fitted inhibition curve with a large enough effect in the main read-out, with a control signal flat (not every such curve was filed as active); inconclusive = small, poorly fitted or top-dose-only effect, or effect the other way, or a change in a side signal; inactive = no such curve, though single readings can be large or run the other way. Potencies beside an inconclusive call are fits to weak or partial responses and may not hold up. A note “side channel” means that the fit belongs to a control or component signal, not to the main read-out.

What follows are compounds tested against Tumor susceptibility gene 101 protein (Homo sapiens) (UniProt Q99816) (assay: qHTS Assay for Iinhibitors of HIV-1 Budding by Blocking the Interaction of PTAP/TSG101). Settings: Fluorescence polarization, FITC-PTAP peptide / Tsg101 binding; activity change, negative = inhibition: at 115 µM (top of the series).
Sequence of UniProt Q99816 (Q99816 whole entry, looked up, the tested form may be a part): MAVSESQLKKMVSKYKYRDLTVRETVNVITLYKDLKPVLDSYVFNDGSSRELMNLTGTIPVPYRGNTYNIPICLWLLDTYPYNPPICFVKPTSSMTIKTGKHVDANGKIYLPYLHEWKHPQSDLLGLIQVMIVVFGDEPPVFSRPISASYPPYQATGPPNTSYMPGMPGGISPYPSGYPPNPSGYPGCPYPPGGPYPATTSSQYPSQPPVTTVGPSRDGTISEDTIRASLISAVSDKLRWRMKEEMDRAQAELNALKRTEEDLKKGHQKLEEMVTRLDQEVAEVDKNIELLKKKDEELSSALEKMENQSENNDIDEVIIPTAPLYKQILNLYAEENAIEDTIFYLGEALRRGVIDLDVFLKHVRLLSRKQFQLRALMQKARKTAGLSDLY
Method in brief: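 FP read-out: FITC-PTAP peptide, 50 nM final, binding Tsg101 binding domain, 10 uM final; 20 min, r.t.; 10 mM HEPES pH 7.5, 0.15 M NaCl, 0.01% Tween 20, 3 mM EDTA, 0.1 mM TCEP.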
For activity change, negative = inhibition in this document: % of control where 0% means no effect.
Potency is read from the fitted curve at half-maximal effect; tags tell the direction and shape of the fitted curve or compound fluorescence and quenching.

SMILES	Potency	activity change, negative = inhibition
Cc1ccc(N=C2NC(=O)/C(=C/c3cn(C)c4ccccc34)S2)cc1C	inconclusive: 79.4 µM [fluorescent, side channel, partial curve, poor fit]	–
COc1ccc2[nH]c(C(=O)N3CCC(n4nccc4NC(=O)C4CC4)CC3)c(C)c2c1	inactive	–
Cc1cccc(Nc2nc(N)c([N+](=O)[O-])c(N3CCC(C)CC3)n2)c1	inconclusive: 39.8 µM [quencher, side channel, partial curve, poor fit]	–
Cc1cc(N2CCCCC2)nc2ccc(NC(=O)c3ccc(Br)o3)cc12	inactive	–
CC(C)Sc1nc(NCc2ccco2)c2c3c(sc2n1)COC(C)(C)C3	inactive	–
C=CCn1c(C)c(/C=C/c2cc[n+](C)cc2)c2ccccc21	inconclusive: 56.2 µM [fluorescent, side channel, partial curve, poor fit]	–
Cc1sc2nc(CN3CCCC3)nc(N3CCN(S(=O)(=O)c4cccs4)CC3)c2c1C	inactive	–
COC(=O)c1ccc(NC(=O)CSc2ccccc2)cc1	inactive	–
Cc1ccc(CNC(=O)CN2CCC(C(N)=O)CC2)cc1	inactive	–
CCOC(=O)C1CCCN(c2ncnc3c2cnn3-c2ccc(Cl)cc2)C1 (configuration not stated)	inactive	–
COc1ccc(C(=O)/C=C/c2cn(CC(O)CN3CCN(C)CC3)c3ccccc23)cc1OC (configuration not stated)	inconclusive: 79.4 µM [fluorescent, single point]	–
Nc1cc(N2CCCCCC2)c2nonc2c1[N+](=O)[O-]	inconclusive: 56.2 µM [fluorescent, side channel, partial curve, poor fit]	–
O=S(=O)(c1ccc(NC(=S)N2CCN(c3ccc(O)cc3)CC2)cc1)N1CCOCC1	inactive	–
Cc1ccc(NC(=O)c2cc(S(=O)(=O)NCCC3=CCCCC3)ccc2F)cc1F	inconclusive: 20 µM [quencher, side channel, partial curve, poor fit]	–
Cc1c2ccccc2nc2c(F)c(N(C)C)c(F)c(F)c12	inconclusive: 50.1 µM [fluorescent, side channel, partial curve, poor fit]	–
Nc1nnnn1/N=C/c1cc(Cl)cc(Cl)c1O	inconclusive: 56.2 µM [fluorescent, side channel, partial curve, poor fit]	–
Cc1ccc(C(=O)CN(C(=O)c2ccc(Cl)c(Cl)c2)N2C(=O)C3C4C=CC(C4)C3C2=O)cc1 (configuration not stated)	inconclusive: 50.1 µM [quencher, side channel, partial curve, poor fit]	–
Cc1cc(NC(=O)CSc2ncn(-c3ccccc3)n2)no1	inactive	–
CCOc1ccc(OCC)c(-c2c(=O)n(OCc3ccccc3Br)c3ccccc3[n+]2[O-])c1	inactive	–

SMILES	Potency	activity change, negative = inhibition
OC(CN1CCN(c2ccccn2)CC1)Cn1c2ccccc2c2ccccc21 (configuration not stated)	inconclusive: 89.1 µM [falling, single point]	–
CC(=O)N1CCN(C(=O)c2ccc(-c3ccccc3Cl)o2)CC1	inactive	–
Cc1c(C(=O)O)c(O)cc2c1C(=O)c1c(O)c([C@@H]3O[C@H](CO)[C@@H](O)[C@H](O)[C@H]3O)c(O)c(O)c1C2=O	inconclusive: 79.4 µM [quencher, side channel, partial curve, poor fit]	–
CCN(CC)c1ccc(/C=C2\CCC(/C=N/NC(=O)c3ccc(=O)n(C)c3)=C2N2CCOCC2)cc1	inconclusive: 56.2 µM [fluorescent, side channel, partial curve, poor fit]	–
Cc1cccc(-c2c3c(=O)n(C)c(=O)n(C)c3c3nnc4ccccc4n23)c1	inconclusive: 56.2 µM [fluorescent, side channel, partial curve, poor fit]	–
CC(C)(C)C1CCC(=O)N(CCOc2ccccc2)CC1 (configuration not stated)	inactive	–
COc1ccc(N=Cc2sc(O)c3ccccc23)cc1	inconclusive: 35.5 µM [fluorescent, side channel, partial curve]	–
COc1cc(/C=N\Nc2ccc([N+](=O)[O-])cc2)ccc1OCC(=O)Nc1ccc(C)c(C)c1	inconclusive: 28.2 µM [fluorescent, side channel, partial curve, poor fit]	–
CCOC(=O)c1ccccc1NC(=O)COC(=O)c1cc([N+](=O)[O-])ccc1N1CCOCC1	inactive	–
CCOC(=O)c1ccc(-c2ccc(/C=C(\C#N)C(=O)NCC3CCCO3)o2)cc1 (configuration not stated)	inconclusive: 89.1 µM [fluorescent, side channel, single point]	–
COc1ccc(/C=c2\s/c(=C/C(=O)c3ccc(C)cc3)[nH]c2=O)c(OC)c1	inconclusive: 56.2 µM [fluorescent, side channel, partial curve, poor fit]	–
CC(C)CC(NC(=O)CCC(=O)OCC(=O)[C@@]1(O)CCC2[C@@H]3CCC4=CC(=O)C=C[C@]4(C)C3[C@@H](O)C[C@@]21C)C(=O)O (some centres not stated)	inactive	–
CN(C(=O)CCN1C(=O)/C(=C/c2ccccc2)SC1=S)C1CCS(=O)(=O)C1 (configuration not stated)	inconclusive: 79.4 µM [quencher, side channel, partial curve]	–
CC(C)c1ccc2nc3sc(C(=O)N4CCc5ccccc5C4)c(N)c3cc2c1	inconclusive: 56.2 µM [fluorescent, side channel, partial curve, poor fit]	–
CC1CC(C)CN(S(=O)(=O)c2ccc(C(=O)NCCCn3ccnc3)cc2)C1 (configuration not stated)	inactive	–
CCC(=C/c1sc2ccc3ccccc3c2[n+]1C)/C=C1\Sc2ccc3ccccc3c2N1C	inconclusive: 50.1 µM [quencher, side channel, partial curve, poor fit]	–
CC(C)N(C(=O)[C@H]1C[C@H](CC(=O)NCc2cccc(C(F)(F)F)c2)C(=O)N2CCc3c([nH]c4ccc(Cl)cc34)[C@]12C)C(C)C	inconclusive: 14.1 µM [quencher, side channel, partial curve, poor fit]	–
COC(=O)C1=COC(C)C2CN3CCc4c([nH]c5cc(OC)c(OC)cc45)C3CC12 (configuration not stated)	inconclusive: 56.2 µM [fluorescent, side channel, partial curve, poor fit]	–
O=C(CCCOc1ccccc1)Nc1cccc(S(=O)(=O)N2CCCCC2)c1	inactive	–

SMILES	Potency	activity change, negative = inhibition
CC(C)(C)C1C/C(=C/c2ccccn2)C(=O)/C(=C/c2ccccn2)C1 (configuration not stated)	inactive	–
CN1CC=C2C(C#N)=C(N)C(C#N)(C#N)[C@H](c3ccoc3)[C@H]2C1	inconclusive: 56.2 µM [fluorescent, side channel, partial curve, poor fit]	–
CNC(=O)c1sc(N2N=C3/C(=C/c4ccccc4)CCCC3C2c2ccccc2)nc1C (configuration not stated)	inconclusive: 89.1 µM [fluorescent, side channel, single point]	–
O=C1Nc2ccc(Br)cc2/C1=N\N=C\C1=C(N2CCOCC2)C(=C/c2ccccc2)/CC1	inconclusive: 79.4 µM [quencher, side channel, partial curve, poor fit]	–
Cc1csc(NC(=O)Cc2ccc(Cl)cc2)n1	inactive	–
COc1cc(OC)c(-c2c3cc(O)c(=O)cc-3oc3cc(O)c(O)cc23)cc1OC	inconclusive: 50.1 µM [fluorescent, side channel, partial curve]	–
CCCN1C(=O)/C(=C/C=C2\N(CC)c3ccccc3C2(C)C)SC1=S	inconclusive: 14.1 µM [fluorescent, side channel, full curve, poor fit]	–
CCCN1C(=O)S/C(=C/c2ccc(N3CCOCC3)o2)C1=O	inconclusive: 50.1 µM [fluorescent, side channel, partial curve, poor fit]	–
CCN(CC)c1ccc(/C=C(\C#N)C(=O)NCc2ccccc2)cc1	inconclusive: 89.1 µM [fluorescent, single point]	–
Cc1cc(O)cc2c1C(=O)/C(=C/c1ccco1)O2	inconclusive: 50.1 µM [fluorescent, side channel, partial curve, poor fit]	–
Cc1ccc(S(=O)(=O)/N=C2/NC(=O)/C(=C/c3cc([N+](=O)[O-])ccc3O)S2)cc1	inactive	–
O=C(CN1C(=O)NC(Cc2c[nH]c3ccccc23)C1=O)Nc1ccccc1C(F)(F)F (configuration not stated)	inconclusive: 79.4 µM [falling, partial curve]	–
COc1cc(/C=C2\CCC(C)C3=C(c4cc(OC)c(OC)c(OC)c4)C(C#N)=C(N)OC32)cc(OC)c1OC (configuration not stated)	inconclusive: 79.4 µM [fluorescent, side channel, partial curve, poor fit]	–
O=C(Nc1ccccc1)c1ccc(NCCc2ccccc2)c([N+](=O)[O-])c1	inconclusive: 50.1 µM [fluorescent, side channel, partial curve, poor fit]	–
Oc1ccccc1N=Cc1c(O)ccc2ccccc12	inconclusive: 39.8 µM [fluorescent, side channel, partial curve, poor fit]	–
CS(=O)(=O)N(CC(=O)Nc1cc(Cl)ccc1Cl)c1ccccc1	inactive	–
CC1CC(=O)c2c(cc3c(-c4c(O)cc(O)c5c(O)c6c(cc45)OC(C)CC6=O)c(O)cc(O)c3c2O)O1 (configuration not stated)	inconclusive: 79.4 µM [quencher, side channel, single point]	–
CC1=CC(=C(C#N)C#N)C=C(C)N1CCN1CCN(C(=O)Nc2ccc(Cl)c(Cl)c2)CC1	–	inconclusive: -17.1% [phenotype inactive]
C/C(=N\NC(=O)c1ccccc1)c1ccc(NC(=O)c2cccs2)cc1	inactive	–
